According to PubChem BioAssay AID686978 (National Center for Advancing Translational Sciences (NCATS), 2013):
“And” between values parts separate entries of the source, which are not always exact repeats. Identical values can stand only once. Out of some 420,000 compounds screened, about 64,000 (15%) were called active. The inconclusive results got no clear call from the source; some entries with a clear call stand among them for comparison. The call rests on the fitted dose curve; in most records, active means well fitted inhibition curve with a large enough effect; inconclusive means small, poorly fitted or top-dose-only effect; inactive means flat fitted curve, though single readings scatter. Potencies beside an inconclusive call are fits to weak or partial responses and may not hold up.

Experiment: qHTS for Inhibitors of human tyrosyl-DNA phosphodiesterase 1 (TDP1): qHTS in cells in absence of CPT; further: nearly all actives have a fitted effect of over 55% in size
Details: DT40 Tdp1-/- hTDP1 cells, no CPT, ATP luminescence, 48 h; activity change, negative = growth inhibition: at 46.2 µM (top of the series) unless noted
Outline: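 Seeded 400 DT40-hTDP1 cells/well (vehicle DMSO, no 20 nM CPT); pinned compounds; ≥48 hr at 37 °C; CellTiter-Glo luminescence as viability measure.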
On the % scale 0 is the no-effect control and ±100 the full control effect; potency means the concentration at half of the fitted maximal effect; tags describe the fitted curve by direction and shape.

SMILES | Potency | activity change, negative = growth inhibition
CCOC(=O)C1CCN(c2ncnc3c2c(-c2ccccc2)cn3-c2ccc(Cl)cc2)CC1 | inconclusive: 9.2 µM [inhibitor, partial curve] | –
CCCCC1CCC(C(=O)Nc2ccc(N3CCOCC3)cc2N2CCOCC2)CC1 (stereo not drawn) | inconclusive: 20.6 µM [inhibitor, single point] | –
CC(C)=CCC/C(C)=C/COc1c2occc2cc2ccc(=O)oc12 | inconclusive: 29.9 µM [inhibitor, partial curve, poor fit] and inconclusive: 29.1 µM [inhibitor, single point] | –
CN(CC(=O)NCCc1ccc(S(N)(=O)=O)cc1)Cc1ccc(Cl)cc1Cl | inconclusive: 29.1 µM [inhibitor, partial curve, poor fit] | –
N#Cc1c(C(F)(F)F)cc(-c2cccs2)nc1SCc1ccccc1F | inconclusive: 29.1 µM [inhibitor, single point] | –
O=C(c1ccccc1)N1CCN(C(=S)NCc2ccco2)CC1 | inactive | –
COc1cc(NC(=O)CC[C@H]2O[C@@H](n3cnc4c(NC(=O)c5ccccc5)ncnc43)[C@H](O)[C@@H]2O)cc(OC)c1OC | inactive | –
CCOc1ccc2oc(=O)cc(CN3CCN(C(=O)c4ccco4)CC3)c2c1 | inactive | –
OCCNCc1cc(Br)ccc1OCc1ccc(Cl)cc1Cl | active: 9.2 µM | –
O=C(NCCCCCCCN1CCCCCCC1)C(C1CCCCC1)C1CCCCC1 | active: 14.6 µM | –
Cc1nn(-c2cc(C)c3ccccc3n2)c2c1C1C(C2)C1(C)C (stereo not drawn) | inconclusive: 29.1 µM [inhibitor, single point] | –
CCOc1ccccc1Nc1sc(C(=O)c2ccc(Cl)cc2)c(N)c1S(=O)(=O)c1ccccc1 | inconclusive: 11.6 µM [inhibitor, partial curve, poor fit] | –
O=c1cc(C(F)(F)F)[nH]c2ccccc12 | active: 20.6 µM | –
O=C(CSc1ncc2c(n1)-c1ccccc1N(Cc1ccc(Cl)cc1)S2(=O)=O)c1ccccc1 | – | inconclusive: -32.1% [inhibitor]
COc1cccc(OC)c1OCCOc1ccc(C(=O)c2ccccc2)cc1 | inconclusive: 0.731 µM [inhibitor, full curve, poor fit] | –
CCC(C)Nc1nc2c(c(=O)n(C)c(=O)n2C)n1Cc1ccc(F)cc1 (stereo not drawn) | inconclusive: 20.6 µM [inhibitor, partial curve] | –
CCc1cc2c(-c3ccccc3)cc(=O)oc2c(CN2CCOCC2)c1O | inconclusive: 11.2 µM [inhibitor, partial curve, poor fit] | –
CCCOc1ccc(C2=CSC3=NCCN23)cc1[N+](=O)[O-] | inconclusive: 16.4 µM [inhibitor, single point] | –
Oc1ccc2ccccc2c1/C=C/c1ccc2c(Br)cc(Br)c(O)c2n1 | active: 5.17 µM | –
CN=c1sc(C(=O)Nc2cccc(Cl)c2)cc(=O)n1C | inconclusive: 18.4 µM [inhibitor, single point] | –
Cn1cc(-c2nc3cncnc3n(CCN)c2=O)c2ccccc21 | active: 16.4 µM | –

SMILES | Potency | activity change, negative = growth inhibition
COC(=O)c1cc(NC(=O)CN2CCc3cc4c(cc3C2)OCCCO4)cc(C(=O)OC)c1 | inconclusive: 29.1 µM [inhibitor, single point] | –
Cc1cc(C)cc(NC(=O)c2cnn(-c3ccccc3)c2C2CCNCC2)c1 | active: 16.4 µM | –
CCC1CCCCN1C(=O)c1c(-c2ccccc2)noc1C (stereo not drawn) | inconclusive: 20.6 µM [inhibitor, single point] | –
COc1ccccc1-c1noc2c1C(=O)N(Cc1cn(Cc3ccccc3)nn1)CC2 | inconclusive: 29.1 µM [inhibitor, single point] | –
COc1ccc(NC(=O)C(Cc2ccccc2)NC(=O)c2ccco2)cc1OC (stereo not drawn) | inactive | –
O=C(CCNS(=O)(=O)c1ccc2nsnc2c1)N1CCN(c2ccncc2)CC1 | active: 16.4 µM | –
CCN(Cc1ccccc1)C(=O)Cn1ncc2c(=O)oc3ccc(C)cc3c21 | inactive | –
COc1ccc(-c2nc(NC(=O)C3=NN(c4cccc(C)c4)C(=O)CC3)sc2C)cc1 | inconclusive: 29.1 µM [inhibitor, single point] | –
COc1cccc(NS(=O)(=O)c2cc3c(cc2C)N(C(C)=O)CCO3)c1 | inconclusive: 29.1 µM [inhibitor, single point] | –
COc1ccc(C2/C=C\CN(C(=O)OCC3c4ccccc4-c4ccccc43)CC(=O)N2Cc2cccc(F)c2)cc1 (stereo not drawn) | active: 23.1 µM | –
Cn1c(=O)c2cc(NC(=O)CCc3ccccc3)ccc2n1-c1ccccc1F | active: 13 µM | –
Cc1cccc(COc2ccccc2C(=O)N(C)CC(=O)Nc2cccc(F)c2)c1 | inconclusive: 29.1 µM [inhibitor, single point] | –
COc1ccc(NC(=S)NNC(=O)c2nnn(-c3ccccc3)c2C)cc1 | inconclusive: 16.4 µM [inhibitor, single point] | –
CCCCCCCC(=O)Oc1ccc(C(=O)Nc2cc(C)on2)cc1 | inactive | –
COc1cc(C(=O)N/N=C/c2ccc(OC(=O)c3ccccc3Cl)cc2)ccc1O | inconclusive: 8.2 µM [inhibitor, partial curve] | –
CC(=O)Nc1ccc(NC(=O)CC(NC(=O)c2ccccc2)c2ccccc2)cc1 (stereo not drawn) | inactive | –
Cc1ccc(NC(=O)CCS(=O)(=O)c2cccc3nonc23)c(Cl)c1 | inactive | –
COC(=O)[C@H]1C[C@H](OC(=O)NCc2ccc(OC)c(OC)c2)[C@@]2(O)CN(S(=O)(=O)c3ccc(C)cc3)CC2[C@H]1C(=O)OC (stereo partly drawn) | inconclusive: 23.1 µM [inhibitor, single point] | –
CCC(C(=O)NC1CCCCC1)n1c(SCc2cccc(F)c2)nc2ccncc21 (stereo not drawn) | inconclusive: 23.1 µM [inhibitor, single point] | inconclusive: -34.6% [inhibitor]
CC1=CC(C)(C)N2C(=O)C3(C(C#N)=C(N)OC4=C3C(=O)CC(C)(C)C4)c3c(C)c(C)cc1c32 (stereo not drawn) | inconclusive: 29.1 µM [inhibitor, single point] | –
O=C(COC(=O)c1cc2c(s1)CCCCC2)NC1CCS(=O)(=O)C1 (stereo not drawn) | inactive | –
